Measurements from PubChem BioAssay AID1745853 (National Center for Advancing Translational Sciences (NCATS), 2022).
This is one part of the list. The main result of the screen is listed elsewhere. These columns were measured beside it and carry no call.

Assays:
Assay in all cases: Primary Screen for Target Class Profiling of Small Molecule Inhibitors of Methyltransferases
[1] = target: Glycine N-methyltransferase (Homo sapiens) (UniProt Q14749); settings: purified enzyme, MTase-Glo SAH luminescence; measured here: GNMT inhibition; at 40 µM; stronger effect = lower value
Summary of the method: (§1)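 Each enzyme was assayed with SAM and its substrate. SAH formation detected by MTase-Glo luminescence; single-point 40 uM screen[…].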

[2] = target: Guanidinoacetate N-methyltransferase (Homo sapiens) (UniProt Q14353); settings: purified enzyme, MTase-Glo SAH luminescence; measured here: GAMT inhibition; at 40 µM; stronger effect = lower value
Summary of the method: as §1

[3] = target: Histamine N-methyltransferase (Homo sapiens) (UniProt P50135); settings: purified enzyme, MTase-Glo SAH luminescence; measured here: HNMT inhibition; at 40 µM; stronger effect = lower value
Summary of the method: as §1

[4] = target: Nicotinamide N-methyltransferase (Homo sapiens) (UniProt P40261); settings: purified enzyme, MTase-Glo SAH luminescence; measured here: NNMT inhibition; at 40 µM; stronger effect = lower value
Summary of the method: as §1

[5] = target: Phenylethanolamine N-methyltransferase (Homo sapiens) (UniProt P11086); settings: purified enzyme, MTase-Glo SAH luminescence; measured here: PNMT inhibition; at 40 µM; stronger effect = lower value
Summary of the method: as §1
On the % scale 0 is the no-effect control and ±100 the full control effect.

| Compound | activity change, negative = inhibition [1] | activity change, negative = inhibition [2] | activity change, negative = inhibition [3] | activity change, negative = inhibition [4] | activity change, negative = inhibition [5] |
| --- | --- | --- | --- | --- | --- |
| Cc1ccc(N2C(=O)c3cc4ccccc4n3CC2(C)C(=O)NC2CCCC2)cc1Cl (stereo not drawn) | 2.11% | 0% | 1.5% | 3.37% | 0.502% |
| CCOc1cc(CNC(=O)c2cc3n(n2)CC(C)(C(=O)NCc2ccc(F)cc2)N(C)C3=O)ccc1OC (stereo not drawn) | 1.99% | 4.42% | -7.51% | 6.21% | 4.51% |
| N[C@@H](CCC(=O)N[C@H](CSN=O)C(=O)NCC(=O)O)C(=O)O | 0.772% | 12.7% | 9.72% | -1.18% | 5.71% |
| O=c1[nH]ccc2c(S(=O)(=O)N3CCCNCC3)cccc12 | – | 2.67% | – | -6.15% | 2.89% |
| Cn1cc(-c2ccc3ncc(Cc4ccc5ncccc5c4)n3n2)cn1 | -25% | -9.43% | -21% | -28.1% | -19.8% |
| CCOc1ccc(CN2C(=O)c3cc4occc4n3CC2(C)C(=O)NC2CCCCCC2)cc1 (stereo not drawn) | -5.59% | 0.571% | -2.73% | -4.53% | -4.79% |
| O=C(CCn1ccc2cc(S(=O)(=O)N3CCCCC3)ccc21)NC1CCCCC1 | 3.81% | 0% | -1.62% | 2.55% | 1.45% |
| Cc1ccc(Cn2c(=O)c3ccccc3n3c(SCC(=O)NCc4ccccc4)nnc23)cc1 | -3.09% | 1.06% | 3.82% | -9.52% | -1.4% |
| COC(=O)c1cc2n(n1)CC(C)(C(=O)NC1CCCC1)N(c1cc(Cl)ccc1C)C2=O (stereo not drawn) | 5.06% | 0% | -4.85% | 10% | 7.38% |
| O=C(NC1CCCC1)C1c2sc3ccccc3c2CC(=O)N1CCc1ccc(Cl)cc1 (stereo not drawn) | -2.69% | 7.39% | -1.91% | -2.29% | -2.14% |
| COc1ncccc1-c1cc(-c2cn[nH]c2)c2cncn2c1 | -17.9% | -2.94% | -6.5% | -14.5% | -13.4% |
| CCc1ccccc1NS(=O)(=O)c1cc2c(cc1Cl)n(C)c(=O)n2C | 13.7% | 0.579% | 0.726% | 4.72% | 10.3% |
| CCOc1ccc(CCNS(=O)(=O)c2ccc3[nH]c4c(c3c2)CCCC4)cc1OCC | -3.28% | -0.718% | -12.9% | -7.39% | -6.17% |
| COc1cccc(CNC(=O)C(C)n2ccc3cc(S(=O)(=O)N4CCCCC4)ccc32)c1OC (stereo not drawn) | 3.19% | 0% | 6.55% | -1.98% | 2.96% |
| CCc1ccccc1NC(=O)N1CCn2cccc2C1C (stereo not drawn) | -3.81% | 4.75% | -3.11% | -8.72% | -2.88% |
| COc1cccc(C(=O)NC2CCN(c3nnc4ccccn34)CC2)c1 | -5.44% | -0.08% | 3.07% | -5.36% | 10.5% |

| Compound | activity change, negative = inhibition [1] | activity change, negative = inhibition [2] | activity change, negative = inhibition [3] | activity change, negative = inhibition [4] | activity change, negative = inhibition [5] |
| --- | --- | --- | --- | --- | --- |
| OC[C@H]1O[C@@H](n2cnc3c2NC=NC[C@H]3O)C[C@@H]1O | 6.44% | 1.21% | 1% | -11.2% | -1.64% |
| C1=C(c2cc(-c3ccncc3)cn3cncc23)CCOC1 | -37.6% | -20.2% | -20.4% | -30.8% | -46.9% |
| COc1ccccc1N1CCN(c2nc3c(S(=O)(=O)c4ccccc4)nnn3c3ccccc23)CC1 | 5.62% | 0% | 1.91% | 6.45% | 2.35% |
| O=C(CCc1nnc2n(Cc3ccccc3)c(=O)c3ccccc3n12)NCc1ccccc1 | -7.78% | 5.02% | 2.66% | 6.13% | -0.807% |
| COc1ccc(OC)c(CN2C(=O)c3nc4ccccc4n3CC2(C)C(=O)NCc2ccccc2)c1 (stereo not drawn) | 1.18% | 0% | 3.61% | 7.09% | -0.832% |
| CC(C)CCNC(=O)C1(C)Cn2nc(C(=O)NCc3ccccn3)cc2C(=O)N1C (stereo not drawn) | 7.74% | 0% | 8.46% | 8.85% | 5.57% |
| O=C(NCc1cccnc1)C1CN(S(=O)(=O)c2ccccc2)CC12CCCCC2 (stereo not drawn) | -0.337% | -0.045% | -1.19% | -2.51% | -1.11% |
| Cc1onc(-c2c(Cl)cccc2Cl)c1C(=O)N[C@@H]1C(=O)N2[C@@H]1SC(C)(C)[C@@H]2C(=O)O | -3.84% | -4.99% | 6.53% | -18% | 3.13% |
| Cc1ccc(NC(=O)N2CCn3cccc3C2C(C)C)cc1C (stereo not drawn) | 16.8% | 1.19% | 10.8% | 7.72% | 9.75% |
| CC1(C(=O)NC2CCCCCC2)Cn2c(cc3occc32)C(=O)N1CCc1ccccc1 (stereo not drawn) | 3.09% | 1.53% | 5.96% | 4.42% | 2.71% |
| COCCOCc1nc(C2CCNCC2)no1 | -1% | -1.72% | -1.24% | -2.79% | -0.906% |
| COc1ccccc1CN1C(=O)c2cc3sccc3n2CC1(C)C(=O)NC1CCCC1 (stereo not drawn) | -18.2% | 4.53% | 0.057% | -7.33% | -0.45% |
| COc1ccccc1Oc1ncccc1CNCc1c(F)cccc1Cl | -5.86% | -5.82% | -8.07% | -18.1% | -33.2% |
| CN(C1CCc2nn(CC3CC3)c(=O)n2CC1)S(=O)(=O)c1ccc(C#N)cc1 (stereo not drawn) | -4.74% | -1.86% | -0.714% | -2.73% | -1.94% |
| C[C@@]12C[C@]3(O)O[C@H](O1)[C@]1(COC(=O)c4ccccc4)[C@H]3C[C@@]12O[C@@H]1O[C@H](COC(=O)c2ccccc2)[C@@H](O)[C@H](O)[C@H]1O | 0% | 0.941% | -2.77% | -11.6% | 2.85% |
| COc1cccc(CC(=O)N2CC[C@@H](NC(=O)c3cnccn3)[C@H](O)C2)c1 | -5.55% | -6.36% | -4.46% | -15.1% | -9.01% |
